The full ranking holds about 110,000 compounds; the median of “z-score” is about -0.1, and the highest 2% start at about 2. Some of the results follow. Calls of active or inactive are those of the source.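 Rule for the calls: active = z-score in the third read window above 3 or below -3; inactive = the rest.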
What follows are compounds tested against Metabotropic glutamate receptor 8 (Rattus norvegicus) (UniProt P70579) (assay: rat mGluR8 modulators via GIRK flux, primary screen, cell-based, thallium flux, HTS (AID 488969)). Details: HEK293 rat mGluR8, GIRK (G protein-gated inwardly rectifying potassium channel) thallium flux, FluoZin2; at 10 µM; stronger effect = higher value; submaximal glutamate (EC20) added with thallium.
UniProt P70579, sequence (P70579 whole entry, looked up): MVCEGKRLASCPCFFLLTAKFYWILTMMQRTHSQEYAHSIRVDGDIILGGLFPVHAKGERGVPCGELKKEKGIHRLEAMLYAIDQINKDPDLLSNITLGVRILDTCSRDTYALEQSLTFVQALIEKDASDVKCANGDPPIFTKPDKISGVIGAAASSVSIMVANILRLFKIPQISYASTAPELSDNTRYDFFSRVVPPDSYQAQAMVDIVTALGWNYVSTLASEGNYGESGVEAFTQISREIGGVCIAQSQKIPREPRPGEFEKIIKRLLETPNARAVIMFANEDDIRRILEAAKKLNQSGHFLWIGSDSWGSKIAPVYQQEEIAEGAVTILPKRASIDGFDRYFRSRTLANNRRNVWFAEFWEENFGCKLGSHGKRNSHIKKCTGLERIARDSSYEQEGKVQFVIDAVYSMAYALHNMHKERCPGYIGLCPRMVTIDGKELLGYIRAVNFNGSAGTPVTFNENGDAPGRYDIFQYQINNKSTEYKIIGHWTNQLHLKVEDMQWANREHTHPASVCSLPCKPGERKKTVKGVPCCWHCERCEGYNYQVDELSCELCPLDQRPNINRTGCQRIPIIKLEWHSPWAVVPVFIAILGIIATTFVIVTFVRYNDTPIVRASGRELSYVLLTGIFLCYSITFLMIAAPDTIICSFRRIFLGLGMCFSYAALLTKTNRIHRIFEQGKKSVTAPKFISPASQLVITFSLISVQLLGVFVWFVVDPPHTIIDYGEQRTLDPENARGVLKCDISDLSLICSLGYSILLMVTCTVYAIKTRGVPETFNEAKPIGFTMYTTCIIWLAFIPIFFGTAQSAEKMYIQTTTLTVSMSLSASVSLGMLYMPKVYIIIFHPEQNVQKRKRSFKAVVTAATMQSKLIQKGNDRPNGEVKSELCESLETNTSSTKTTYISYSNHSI

Going from O=C(O)c1cc2ccc3ccccc3c2[nH]1 to CC(=O)c1nn(-c2ccccc2)cc1C(=O)c1cccc(Br)c1, the z-score rises from -0.72 to 0.0368.

Going from COc1ccc(CNC(=O)c2c(N)n(CCCN3CCOCC3)c3nc4ccccc4nc23)cc1 to O=C1C(Cl)=C(NCCCN2CCOCC2)C(=O)N1CCc1ccccc1, the z-score rises from -0.327 to -0.296.

Compared with CCc1cc(=O)oc2cc(C)cc(OCc3nn[nH]n3)c12, CCc1nc(C)cn1S(=O)(=O)c1cc(Br)c(C)cc1OC is lower in z-score: 0.133 for the first, -0.193 for the second.

Going from Clc1ccc(-c2ccc(SCc3ccccn3)nn2)cc1 to O=C(CN1C(=O)c2cccc3cccc1c23)NCc1ccccn1, the z-score falls from 0.107 to -0.247.

First: CC1CN(C(=S)SCC(=O)c2ccccc2)CC(C)O1 (stereo unspecified)
Second: Nc1nnc(SCCCC(=O)c2ccccc2)s1
The z-score of the first is lower: -0.298 for the first, -0.233 for the second.

Compared with O=C(O)c1ccccc1N(Cc1ccccc1)C(=O)CO/N=C/c1ccccc1, S=C(NCCC(c1ccccc1)c1ccccc1)Nc1ccc(Cl)cc1 is higher in z-score: -0.232 for the first, -0.14 for the second.

Going from Nc1nnnn1/N=C/c1ccccc1OCc1ccc(Cl)cc1Cl to Clc1ccc(-c2nnc3cccc(Cl)n23)c(Cl)c1, the z-score rises from -0.252 to -0.181.

Compared with N#Cc1c(-c2ccccc2)ccnc1Oc1ccccc1, O=C(Nc1nccs1)c1cn(-c2ccccc2)nc1-c1ccccc1 is lower in z-score: 0.317 for the first, 0.192 for the second.

Going from Cc1ccc(S(=O)(=O)N[C@H](C(=O)OCn2nnc3ccccc3c2=O)C(C)C)cc1 to COc1ccc(S(=O)(=O)Nc2cc(C(C)C)c(O)cc2C)cc1, the z-score falls from -0.125 to -0.46.

Going from CSc1nc2ccc(S(=O)(=O)N3CCOCC3)cc2s1 to O=C(Nc1ccccc1)c1ccc(NCc2ccco2)c(S(=O)(=O)N2CCOCC2)c1, the z-score falls from 0.172 to -1.07.

Compared with Cc1nc2nc(C)c(CCC(=O)NC(C)c3ccc4c(c3)OCCO4)c(C)n2n1 (stereo unspecified), COc1ccc(-n2nnnc2SCC(=O)c2ccc3c(c2)OCCO3)cc1 is higher in z-score: 0.0286 for the first, 0.112 for the second.

Going from CCOC(=O)c1cc(-c2ccccc2)sc1NC(=O)c1cc(OC)c(OC)c(OC)c1 to COC(=O)Cn1c(=NC(=O)c2cc(OC)c(OC)c(OC)c2)sc2cc(OC)ccc21, the z-score rises from -0.109 to -0.073.

Compared with O=c1c([N+](=O)[O-])c(NC2CCCCC2)c2ccccc2n1-c1ccccc1, COc1ccc(C(NC(=O)C2CCCCC2)c2c(O)ccc3ccccc23)cc1 (stereo unspecified) is higher in z-score: 0.168 for the first, 0.484 for the second.

Compared with COc1ccccc1C1CC(c2ccc(C)cc2)Nc2ncnn21 (stereo unspecified), Cc1ccc(NC2=Nc3ccccc3CC2)cc1 is higher in z-score: 0.264 for the first, 0.374 for the second.

Compared with COc1cccc(NC(=S)NNC(=O)c2ccccc2OC(F)F)c1, COc1ccc(CC(=O)NNC(=O)c2cccs2)cc1 is lower in z-score: 0.361 for the first, -0.223 for the second.

Compared with CCc1ccc(NC(=O)c2ccc(Cn3cc([N+](=O)[O-])cn3)cc2)cc1, CC(=O)Nc1ccc(C(=O)N/N=C/c2ccccc2OC(=O)c2ccc(Cl)cc2)cc1 is higher in z-score: -0.168 for the first, 0.108 for the second.

First: CC(C)(C)C(=O)NCCCc1ccccc1
Second: CCOC(=O)c1cnc(-n2nc(C)cc2C)nc1NCCc1ccccc1
The z-score of the first is higher: -0.0532 for the first, -0.487 for the second.

First: O=C(CCC1CC(=O)Nc2ccccc21)NCc1ccc(F)cc1 (stereo unspecified)
Second: O=C(CN1CCCN(S(=O)(=O)c2ccc(F)cc2)CC1)Nc1ccccc1Br
The z-score of the first is higher: 0.75 for the first, -1.12 for the second.

First: Cc1cccc(NC(=O)CN2C(=O)NC(Cc3ccccc3)C2=O)c1 (stereo unspecified)
Second: O=C(Nc1ccccc1)N(CCN1CCOCC1)Cc1cccc(Cl)c1
The z-score of the first is lower: 0.0974 for the first, 0.391 for the second.

First: COc1ccc2c(c1)c(C(=O)CN1CCN(C(=O)c3ccco3)CC1)c(C)n2C
Second: CCOC(=O)N1CCN(c2ncnc3c2cnn3-c2ccc(OC)cc2)CC1
The z-score of the first is higher: 0.531 for the first, -0.81 for the second.

Compared with CCOC(=O)C1CCN(CC(=O)Nc2c(C(=O)OC)[nH]c3cccc(C)c23)CC1, COc1ccc(C)cc1NC(=O)COC(=O)C1CC1 is higher in z-score: -0.691 for the first, -0.0696 for the second.

First: Cc1ccc(C2N(c3nccs3)C(=O)C3CCCN32)cc1 (stereo unspecified)
Second: Cc1ccc(NC2SC(=O)N(CC(=O)O)C2=O)cc1 (stereo unspecified)
The z-score of the first is lower: -0.284 for the first, 0.401 for the second.

First: CS(=O)(=O)c1cnc2c(-c3ccc(F)cc3)cnn2c1N
Second: Cc1nn(-c2nc3ccccc3[nH]2)c(N)c1-c1ccccc1
The z-score of the first is lower: -0.215 for the first, 1.36 for the second.

Compared with O=C(CN1CCN(Cc2cccc(Cl)c2)C1=O)NCC1CCCO1 (stereo unspecified), O=C(/C=C/c1cccc([N+](=O)[O-])c1)NCC1CCCO1 (stereo unspecified) is lower in z-score: 0.107 for the first, -0.0579 for the second.

Compared with Cc1ccc(S(=O)(=O)N(C)C2(C)CCS(=O)(=O)C2)cc1 (stereo unspecified), COc1ccc(Oc2nc(C)cc(C)c2S(=O)(=O)c2ccc(C)cc2)cc1 is lower in z-score: -0.0524 for the first, -0.384 for the second.

Compared with COCCCNC(=O)/C(C#N)=c1\s/c(=C\c2ccccc2OC(F)F)c(=O)n1CCCOC, Cc1c(NC(=O)c2ccc(Cl)s2)c(=O)n(-c2ccccc2)n1C is higher in z-score: -0.207 for the first, -0.0691 for the second.

Compared with c1ccc2c(c1)CC1(CCCCC1)n1nnnc1-2, Clc1ccc2[nH]cc(-c3nnnn3-c3ccc4ccccc4c3)c2c1 is higher in z-score: -1.09 for the first, 0.0431 for the second.

Going from C=CCn1c(SCCOc2ccc(OC)cc2)nnc1C(CO)NC(=O)c1ccc(OC)cc1 (stereo unspecified) to CCOc1cc(/C=N/NC(N)=O)ccc1OC(=O)c1ccc(C)cc1, the z-score rises from -0.406 to -0.24.

Going from O=C(CN(C(=O)c1cccc([N+](=O)[O-])c1)C1CCCCC1)Nc1ccc(Cl)c([N+](=O)[O-])c1 to CC(=O)Nc1ccc2c(c1)C(=O)N(C1CCCCC1)C2=O, the z-score falls from -0.137 to -0.706.

Compared with CC/C(O)=C(/C#N)c1nnc2n1CCCCC2, CCOC(=O)C1CCCN(S(=O)(=O)c2cccs2)C1 (stereo unspecified) is higher in z-score: -0.23 for the first, 1.12 for the second.

Going from O=C(Nc1ccc2c(c1)OCO2)c1c(Cl)nc2sccn12 to CCNc1ccc(C(=O)OCC(=O)c2cc(C)n(Cc3ccc4c(c3)OCO4)c2C)cc1[N+](=O)[O-], the z-score rises from -0.167 to -0.128.

Going from Cc1ccc2c(c1)C(O)(CC(=O)c1cccnc1)C(=O)N2 (stereo unspecified) to COc1ccc2c(c1)NC1(O)c3ccccc3C(=O)C21O (stereo unspecified), the z-score rises from 0.195 to 0.297.

Going from CCCNC(=S)N1CCC(NC(=O)C23CC4CC(CC(C4)C2)C3)CC1 to O=C(O)CSCNC(=O)C12CC3CC(CC(C3)C1)C2, the z-score rises from -0.385 to 0.558.

Compared with COc1ccc(S(=O)(=O)NCCSCc2ccco2)cc1OC, COc1ccc(C2=NOC(C(=O)NCc3cccs3)C2)cc1OC (stereo unspecified) is lower in z-score: -0.152 for the first, -0.236 for the second.

Compared with CCc1ccc[n+](-c2[nH]c(=O)sc2/C=N/NC([S-])=Nc2ccccc2)c1, Cc1cccc(/C=N/NC(=O)c2cc3c(s2)-c2ccccc2CC3)c1 is higher in z-score: -0.612 for the first, 0.103 for the second.

First: Cc1ccc(C(=O)NNC(=O)C2CCN(Cc3ccc(Cl)c(Cl)c3)CC2)cc1
Second: CC(C)C(=O)Nc1ccc(C(=O)NNC(=O)CCCOc2ccc(Cl)cc2Cl)cc1
The z-score of the first is higher: -0.0746 for the first, -0.172 for the second.

Compared with Cc1cc2n(n1)SC(Nc1ccc(F)c(Cl)c1)N2 (stereo unspecified), COc1ccc(NC(=O)CNc2cccc(C#N)c2)cc1Cl is higher in z-score: 0.258 for the first, 1.65 for the second.

Compared with O=C(NCc1ccco1)c1ccc(Cl)c(S(=O)(=O)N2CCc3ccccc32)c1, O=C(CN(Cc1cccs1)C(=O)CN1C(=O)COc2ccccc21)NCc1ccco1 is higher in z-score: -0.377 for the first, -0.343 for the second.

Compared with O=C(Cn1ccccc1=O)c1cccs1, Cn1ccnc1SCC(=O)c1cccc(Br)c1 is lower in z-score: -0.75 for the first, -1.32 for the second.

Compared with CCN(CC)S(=O)(=O)c1cc([N+](=O)[O-])ccc1NNC(=O)Nc1ccccc1, O=C(NNS(=O)(=O)c1ccccc1C(F)(F)F)c1cccc(S(=O)(=O)Nc2ccccc2Cl)c1 is lower in z-score: 0.283 for the first, 0.213 for the second.

Going from CC(=O)OC(C#CCN1CCOCC1)c1ccccc1 (stereo unspecified) to O=C1c2ccccc2C(=O)N1CC#CCN1CCN(C(c2ccccc2)c2ccccc2)CC1, the z-score rises from -0.274 to 0.979.

Going from Cc1nc2ccc(C(C(F)(F)F)(C(F)(F)F)C(F)(F)F)cc2[nH]1 to O=c1c(C=Nc2cccc(C(F)(F)F)c2)c[nH]n1-c1cccc(Cl)n1, the z-score falls from 0.0207 to -0.211.

Going from O=C(O)C1CC=CCC1C(=O)Nc1cccc(Cl)c1Cl (stereo unspecified) to Cc1cccc(N2CCN(C(=O)c3ccccc3NC(=O)C3CC=CCC3C(=O)O)CC2)c1 (stereo unspecified), the z-score falls from 0.614 to -0.57.

Going from CC(C)C(=O)NC(=S)Nc1ccccc1F to CC(C)N(C(=O)CSc1nc2c([nH]1)c(=O)n(C)c(=O)n2C)c1ccccc1, the z-score falls from -0.159 to -0.523.

First: O=C(Nc1ccc(OC(=O)c2cccnc2)cc1)c1cccnc1
Second: Cc1ccc(NC(=O)C(OC(=O)c2ccc(NC(N)=O)cc2)c2ccccc2)cc1Cl (stereo unspecified)
The z-score of the first is lower: -0.561 for the first, -0.199 for the second.

Compared with Cc1ccc2nc(NC(=O)c3cc(-c4ccco4)nc4ccccc34)sc2c1, CC(NC(=O)CCSc1nc(-c2ccco2)cc(C(F)(F)F)n1)c1ccccc1 (stereo unspecified) is higher in z-score: -0.874 for the first, -0.191 for the second.

Compared with COc1ccc(CN2C(=O)c3cccnc3C2O)cc1 (stereo unspecified), COc1ccc(-n2nc3ccccc3n2)cc1 is higher in z-score: 0.0391 for the first, 0.249 for the second.

Compared with C(=C\c1ccccc1)/CSc1nnc(-c2cnccn2)n1Cc1ccco1, c1ccc(CSc2nnc(-c3ccco3)n2Cc2ccco2)cc1 is higher in z-score: -1.46 for the first, -0.985 for the second.

Going from CCOC(=O)CC(=O)CSc1nc(C)cc(C)c1C#N to CCOC(=O)CSc1nnc(CCCCCN2C(=O)c3cccc4cccc(c34)C2=O)o1, the z-score falls from -0.421 to -0.835.

First: N#C/C(=C\c1ccc(-c2ccccc2[N+](=O)[O-])o1)C(=O)Nc1nc(-c2cccs2)cs1
Second: CC(=O)Nc1ccc(Nc2nc(C)nc3c2oc2ccccc23)cc1
The z-score of the first is higher: 1.35 for the first, -0.451 for the second.

Compared with CN1C(=O)CC(N2CCN(C(c3ccccc3)c3ccccc3)CC2)C1=O (stereo unspecified), c1ccc(-c2nn3c(C4COc5ccccc5O4)nnc3s2)cc1 (stereo unspecified) is lower in z-score: -0.247 for the first, -0.342 for the second.

First: CCn1c(=O)c2c(nc3n2CCS3)n(C)c1=O
Second: CCOc1cc2[nH]c(=S)n(CCN3CCCCC3C)c(=O)c2cc1OCC (stereo unspecified)
The z-score of the first is lower: -0.382 for the first, 0.258 for the second.

First: CCCC(=O)Nc1ccc(Br)cn1
Second: COc1ccc(NC(=O)c2ccc(Br)o2)c([N+](=O)[O-])c1
The z-score of the first is lower: -0.389 for the first, -0.122 for the second.

Going from CCCCCCCCOC(=O)c1nc(Cl)c(Cl)c(N)c1Cl to Cc1ccc(C(=O)OCc2nnc(-c3ccccc3)o2)o1, the z-score rises from -0.187 to 0.0679.

First: Cc1ccc(-c2nc(C)sc2CC(=O)Nc2cccc(C)c2C)cc1
Second: Cc1cc(C)cc(N(CC(=O)N2CCN(c3ccccc3)CC2)S(=O)(=O)c2c(C)noc2C)c1
The z-score of the first is higher: -0.072 for the first, -0.0998 for the second.

With S=C(NN=C(C1CC1)C1CC1)Nc1ccccc1 the z-score was active: 4.43.
